# Data published in the RNAGym collection of RNA variant scans (doi:10.1093/nar/gkz1192).
# Read counts are not given, so values of variants with three or more changes are uncertain.
# B1: CPEB3 Ribozyme (parent)
# chain: UAACAGGGGGCCACAGCAGAAGCGUUCACGUCGCAGCCCCUGUCAGAUUCUGGUGAAUCUGCGAAUUCUGCUGUAUAUCUC
# Variants of: B1
# Assay: self-cleavage, relative activity (ratio to wild type); higher = more cleavage; in vitro, sequencing
# In short: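 Relative activity was defined as the cleaved/total read fraction for a variant divided by the same fraction for the unmutated ribozyme. CPEB3 self-cleaving ribozyme libraries were made by rounds of error-prone PCR, barcoded, and transcribed in vitro with T7 RNA polymerase for 5 hours at 37°C, and cleavage ran through transcription plus a 15 min DNase I step before EDTA. Illumina sequencing of template-switched reverse transcripts gave the reads, and DNA sequencing mapped the barcodes. Averages come from three batches, using variants with at least 5 reads.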
row,Variant,self-cleavage
1,A15G A18G G24A U60C,0.2
2,A15G A65G U80A,0.14
3,A15G C29U U41C,0.18
4,A15G A20G A21G,0.3
5,A15G A20G U51C U60C A64G,0.06
6,A15C U25C U26A,0.33
7,A15G A28G A45G,0.3
8,A15G A18U A45G U51C U60C C71G A75G,0.22
9,A15G C38G U41C U43C U78C,0.23
10,A15G C32G U41C A47G U74C U80C,0.1
11,A15G A20U C29U U69C U80C,0.12
12,A15G A18G A45G,0.04
13,A15G A18G A45U,0.28
14,A15G A28C G30A A57G U69C,0.07
15,A15G A20G A28G U43C U72C,0.14
16,A15G A21G U25C,0.83
17,A15G A21G U31C,0.41
18,A15G A18G U25C U41C,0.39
19,A15G A28C U41A C44U A56U,0.06
20,A15G A18U U80A,0.39
21,A15C U31C U69C,0.99
22,A15G A20G A21G A28G C44A,0.46
23,A15G A21U U41A G52C,0.24
24,A15G C32U A56C U66A,0.08

row,Variant,self-cleavage
1,A15G A35U U48A,0.2
2,A15G A28G U43C A57G G70U U72G,0.03
3,A15C U31C U43A,0.56
4,A15G A28U A35U U41A U54C A64G,0.14
5,A15C U25C U43C A45U U54C,0.05
6,A15G A18U G24A,0.21
7,A15G C38A A64U U80C,0.21
8,A15G A21G U43A A57G U69G U80C,0.09
9,A15G C29U A47U U58C,0.2
10,A15G A28G U31C C37A U54A A57G,0.13
11,A15G A45U A64U U67A A77G,0.16
12,A15C G33C U41A U43A U72G,0.08
13,A15G A75U U80A,1.23
14,A15G A64G C79A,1.15
15,A15G A18U U31C U78G,0.13
16,A15G A28G U54G A56U,0.16
17,A15G A18C U72C,0.87
18,A15G A21U U51C U60C U76A,0.16
19,A15G A21G U25C U51C A57G U69C,0.33
20,A15C C23U G33A A45G,0.09
21,A15G C17U A21G U69C,0.21
22,A15C C38U U58C U76C,0.14
23,A15G A21G U48G U60C,0.22
24,A15G A20G G30A A56G U80C,0.06

row,Variant,self-cleavage
1,A15G A21G U66A A77U,0.41
2,A15G A45U U78A,0.4
3,A15G A45U U78C,0.32
4,A15G A20G A21G U51A U72C,0.63
5,A15G A28C A57G,0.2
6,A15G A20U U26C A75G,0.31
7,A15G A56G U58C,0.14
8,A15G A20U A35U U80C,0.18
9,A15G C29U U58C,0.15
10,A15G C37G A45G A56G,0.39
11,A15G A35G C62A,0.19
12,A15G A18U G24A C39U G46A C50A A65G,0.05
13,A15G A45G G52C A56G,0.34
14,A15G A18G A28G,0.36
15,A15G A18G C27A A28G A45G U67C,0.11
16,A15G C17U A21G U48C,0.33
17,A15G A45U U48C,0.55
18,A15G A28U U43C U72C A75G,0.27
19,A15G A45C U72A,0.08
20,A15G A18G U26C,0.32
21,A15G A18G U25C U31A U43C A47G A64G,0.36
22,A15G C37U U58A A65G,0.2
23,A15G A18G U25A C40U U51C A56G A77C,0.17
24,A15G C34G U43C U48C U54A U78G,0.08

row,Variant,self-cleavage
1,A15G A20U U69C,0.19
2,A15G A18U A47G U58A U66C,0.07
3,A15G A20U G30U U43C U49C U51C C62U,0.05
4,A15G A35G A45U U51C U69C U72C,0.13
5,A15G A45G U69A,0.23
6,A15G A21U U25C U54C U76C,0.19
7,A15G A20C U48C U80A,0.7
8,A15G C37A A57C U74C,0.06
9,A15G A20G U25C A35U,0.1
10,A15G A65U U80A,0.07
11,A15G A21G C40U U41C U43C A57G U78C,0.25
12,A15G A21G A45G U54G U58G,0
13,A15C A75G U80A,0.59
14,A15G A35G A45G A64U,0.36
15,A15G A35U U41C A47G U72A,0.19
16,A15G C38G U43A A65G,0.19
17,A15G A18U U31A U54A,0.44
18,A15C U26C U43C G53C U58C A64C,0.2
19,A15G A35U U41A U48C U80C,0.14
20,A15G C29U U41C A64U,0.11
21,A15G A35U U43C A64U U69C U72C,0.11
22,A15G A45C U80A,0.34
23,A15C C23U U25A U26C U31A A57G,0.21
24,A15G A28U C29U,0.3

row,Variant,self-cleavage
1,A15C U54G A75U,0.8
2,A15G A45G A47U U67A,0.21
3,A15G A35U A47U U67C,0.15
4,A15C U43C U51A,0.61
5,A15G A35U U48C U80C,0.64
6,A15G A47G U76C,0.88
7,A15G C34U G42A U49C C71U C79U,0.22
8,A15G A21U U80A,0.22
9,A15G A18G A28C U43A U54C G55U U69A,0.04
10,A15C U49A U51C U67C U72C,0.15
11,A15G A28G A35U U54C G61A,0.12
12,A15G A18G U60C A65U U80C,0.07
13,A15C G30A U43C U54C,0.14
14,A15G A35G G52U A56G U72A,0.3
15,A15G A64G U66C A77G,0.14
16,A15G A18G A28G A65G,0.24
17,A15G A20U U48C A57G A77C,0.09
18,A15G A47U U66C A75G,0.16
19,A15G A57G U58A U67C,0.18
20,A15G A20G U67A,0.44
21,A15G A28U G33C U43C U60C,0.12
22,A15G A28G U31C A35C U54A C62G G70A,0
23,A15G A20G U25A,0.23
24,A15G A28G U41C U72A U80A,0.32

row,Variant,self-cleavage
1,A15G A35U U41A U58C A64G U80C,0.09
2,A15G A18G A56G U69C U80C,0.47
3,A15G A18G U43A,0.18
4,A15G A56G U69A,0.2
5,A15C A47U U51A,0.36
6,A15G C17U U58C A75G,0.09
7,A15G A20U U49C U60A,0.14
8,A15C U25C A57G U67A,0.19
9,A15G A35G U54C,0.44
10,A15G A21G C23U A28G,0.36
11,A15G C23A U72C U80A,0.07
12,A15G A20U U43C G63U U78C,0.22
13,A15G C34U A45G A56G U74C U80A,0.3
14,A15G A20U U25C A65G U69A U78C,0.19
15,A15G A28U U67A,0.19
16,A15C C27A U74G U78A,0.16
17,A15C C38A A64G,0.08
18,A15G A45G U51C A64G U66C A75U,0.11
19,A15G A18U U43C U66C,0.45
20,A15G A20U U25C A45G U51C C71A U72A,0.12
21,A15G A28U C40U A45U A47G U51A G53A,0.07
22,A15G A18G A57U,0.12
23,A15G A21G A65G U67C A75U,0.2
24,A15G A21G C34U A45G,0.21

row,Variant,self-cleavage
1,A15G A28G C62U A65G U66C U76C,0.11
2,A15G A56U A64U A77G,0.32
3,A15G A18G A20U U72C,0.07
4,A15G A18C U43C U48C,0.04
5,A15C U43C A64G,0.16
6,A15C U25C G61A U74C A75U,0.27
7,A15C U51C U74C,1.1
8,A15G A20U A28U A47U A64U U78C,0.09
9,A15G A21G G30A U41C U58C,0.23
10,A15G A20G U54A U58C,0.3
11,A15G A18C U43C A45U A47U,0.21
12,A15G A18U U25C U31C C38G U60C,0.03
13,A15C G16A C38U A47U U51G A56G,0.17
14,A15G C29U U49C U69C U74C C79U,0.15
15,A15G A20U A45G A47G A65G U67C,0.08
16,A15G A21G G30A A56G U58C,0.2
17,A15G A18G A77U,0.36
18,A15G A18G A28G G30C U49C,0.21
19,A15G A20G U25C U51A C62A U67C,0.06
20,A15G A20C U41C C44A,0.55
21,A15G C37U U51C U54A A64G,0.21
22,A15C A65G U69A,0.15
23,A15G C37U A65G,0.19
